Data published in the BET-seq Pho4 binding data (Le et al. 2018).
This is one part of the list. Values were computed here from the reads of four pooled replicates and scatter widely.

Molecular target: T1, Pho4 (S. cerevisiae) (UniProt P07270)
T1 sequence: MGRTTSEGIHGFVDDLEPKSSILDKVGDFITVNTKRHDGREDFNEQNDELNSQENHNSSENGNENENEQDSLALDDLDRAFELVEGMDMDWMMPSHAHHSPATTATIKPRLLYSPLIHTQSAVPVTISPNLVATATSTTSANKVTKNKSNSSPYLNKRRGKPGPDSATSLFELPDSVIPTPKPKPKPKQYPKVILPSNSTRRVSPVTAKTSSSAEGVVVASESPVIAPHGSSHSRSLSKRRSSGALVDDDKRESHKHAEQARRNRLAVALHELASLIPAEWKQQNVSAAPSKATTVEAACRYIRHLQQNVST
Experiment: relative binding free energy (BET-seq); higher = weaker binding
Details: reference: library average

Row | Sequence | relative binding free energy [kcal/mol]
1 | TAATGCACGTGGATTT | 0.09
2 | GTGTTCACGTGAACTT | 0.38
3 | TTGCTCACGTGTTGTC | 0.22
4 | ATCTGCACGTGTGGAG | 0.08
5 | AGGGACACGTGAAGGG | 0.24
6 | ATTGGCACGTGGCGGC | -0.26
7 | TTCTACACGTGGGTGT | -0.03
8 | GTATGCACGTGTTATT | 0.07
9 | ATGAGCACGTGGAAGA | 0.09
10 | AGGCTCACGTGATTTT | 0.25
11 | ATTTGCACGTGGATTA | -0.03
12 | CATTGCACGTGATAGG | 0.08
13 | CGGAACACGTGTGGTT | 0.18
14 | GATATCACGTGGGAAG | 0.04
15 | GAGTGCACGTGTCGAG | 0.05
16 | GTGGCCACGTGCAGGT | -0.06
17 | CAGTGCACGTGTAGGG | -0.08
18 | TTGTGCACGTGTGGTA | 0.03
19 | GAAAACACGTGGGGAG | -0.01
20 | TGTTACACGTGGGCAA | 0
21 | GTGGTCACGTGCAGTC | 0.21
22 | GTTTACACGTGGGGAT | 0.03
23 | AGCGTCACGTGGGGTA | -0.19
24 | CTTTGCACGTGTGGTG | 0.08
25 | TATTGCACGTGTGCGG | -0.19

Row | Sequence | relative binding free energy [kcal/mol]
26 | AGTTCCACGTGTTAGT | 0.08
27 | AGGTACACGTGGAGGG | 0.03
28 | GTGGGCACGTGTAGTT | 0.01
29 | GGGATCACGTGAGAGT | 0.4
30 | TTAGGCACGTGGGCCT | -0.15
31 | ATGGTCACGTGCCGTT | 0.05
32 | GGTATCACGTGTGAGC | 0.36
33 | CATGGCACGTGACTGG | 0.13
34 | TGCCGCACGTGGGGTT | -0.09
35 | CATTTCACGTGCTGGT | 0.32
36 | GTCCACACGTGGTGGT | 0.04
37 | ATGAGCACGTGGATGG | -0.06
38 | CGAGTCACGTGTTTTA | 0.2
39 | GTAGGCACGTGTTGCC | 0.13
40 | TGTTACACGTGGATCT | 0.15
41 | GGTCTCACGTGGGTGG | 0.03
42 | ATAGACACGTGGTATG | -0.09
43 | TTTCGCACGTGGGGCG | -0.15
44 | TTATACACGTGAAGTA | 0.35
45 | TGCGGCACGTGTGGGT | -0.02
46 | GGGATCACGTGCAGGA | 0.19
47 | TCGGTCACGTGTATTG | 0.08
48 | GTGGTCACGTGTGTCC | 0.15
49 | TTGGGCACGTGAATGA | 0.08
50 | TTTGCCACGTGTTTAC | 0.07

Row | Sequence | relative binding free energy [kcal/mol]
51 | GGGAGCACGTGTAAGT | -0.08
52 | GGGGGCACGTGCCGGA | -0.17
53 | TAATGCACGTGAGGAG | 0.12
54 | GTTGACACGTGTGCTA | 0.06
55 | GGAGTCACGTGGGGGA | 0.03
56 | GGTTGCACGTGGACCG | -0.02
57 | TGAGTCACGTGGGGCC | 0.05
58 | AGGCGCACGTGGGAGG | -0.15
59 | TGTTGCACGTGGGAGC | -0.16
60 | GGTCCCACGTGGTGGT | 0.12
61 | ATATGCACGTGTGTAG | -0.06
62 | CCTGTCACGTGGTGTG | 0.1
63 | TGTAACACGTGATATA | 0.13
64 | AGGGTCACGTGAATCT | 0.31
65 | GTTTACACGTGTCAGT | 0.2
66 | TTGGGCACGTGTCGAT | 0.05
67 | TTTGGCACGTGTTCTG | 0.01
68 | GGGATCACGTGGAGGC | 0.15
69 | GAGGGCACGTGTCGAT | -0.07
70 | GTTGGCACGTGTTGTA | -0.11
71 | CTTGCCACGTGTGGGT | -0.1
72 | ATATGCACGTGTGGAA | -0.02
73 | TCGGGCACGTGAGTAT | 0.07
74 | GAGGACACGTGTTGGT | 0.19
75 | GGCGGCACGTGGTTGT | -0.16

Row | Sequence | relative binding free energy [kcal/mol]
76 | AGAAGCACGTGTTCGG | -0.07
77 | GATGGCACGTGTAGCG | 0.14
78 | TAGATCACGTGCTGGT | 0.09
79 | ATGTACACGTGGAGTA | 0.06
80 | TGTAGCACGTGTTGGT | 0.03
81 | AGGGCCACGTGAGGGA | 0.14
82 | ATATGCACGTGCTGTA | -0.15
83 | GTGGTCACGTGTTGGT | 0.18
84 | GTTCACACGTGTTGTT | 0.16
85 | GTTCGCACGTGGTCGT | -0.09
86 | TCGGACACGTGTGAGG | 0.1
87 | GTGGGCACGTGCGCAG | -0.31
88 | TAGTTCACGTGGGCCT | 0.07
89 | GTAATCACGTGATTGG | 0.3
90 | TATAGCACGTGACTGG | -0.06
91 | TTGTACACGTGTATTA | 0.04
92 | TTTTACACGTGATTTT | 0.31
93 | GGAGACACGTGAGTTA | 0.39
94 | TCTTGCACGTGCAGGT | 0.07
95 | AATCTCACGTGTGGAG | 0.42
96 | CGTGGCACGTGTAGTG | -0.21
97 | ACTTGCACGTGTGTAT | 0
98 | GGGGACACGTGGGCTG | -0.14
99 | TGCGGCACGTGAGGTG | 0.03
100 | ATCGGCACGTGGTTTA | -0.27

Row | Sequence | relative binding free energy [kcal/mol]
101 | CTGGACACGTGTGGTT | -0.02
102 | TGAATCACGTGTTCGT | 0.13
103 | GTCAACACGTGGAGGG | 0.07
104 | TAGTACACGTGGTAGT | -0.01
105 | GTGTCCACGTGGGGGA | 0
106 | GCTTGCACGTGAGGTT | 0.1
107 | GGAGCCACGTGTGTTG | 0.1
108 | GGTGTCACGTGCGCTG | -0.09
109 | GTGTGCACGTGTACTT | 0.02
110 | ATAGTCACGTGCGTGA | 0
111 | GTGGGCACGTGCGCGT | -0.25
112 | GTGTACACGTGCGGGC | 0.16
113 | GGGCGCACGTGTGTTA | 0.02
114 | TTAACCACGTGAGGTT | 0.29
115 | TGTTTCACGTGCTCTT | 0.25
116 | TGTGGCACGTGCTAGC | -0.22
117 | GAGGACACGTGTGGCG | 0.08
118 | AAGTTCACGTGTTTCT | 0.27
119 | TATCGCACGTGTGAGG | 0.14
120 | CGGTGCACGTGAGGAG | 0.14
121 | TTGAGCACGTGGTATC | -0.19
122 | ATTGACACGTGAGGGC | 0.14
123 | TAGGTCACGTGGTGTG | 0.09
124 | ATGAACACGTGGGGTT | -0.19
125 | AAAATCACGTGAGGGT | 0.16

Row | Sequence | relative binding free energy [kcal/mol]
126 | GTGCACACGTGGTGGA | 0.05
127 | ATATTCACGTGCAGGG | 0.31
128 | ATGGTCACGTGTTGAG | 0.24
129 | GTCAACACGTGTTAGT | 0.01
130 | ACATTCACGTGGTTAT | 0.22
131 | TTAAGCACGTGAGAAG | 0.21
132 | GGTTGCACGTGGAGAA | 0.14
133 | AGTAGCACGTGGGTGC | -0.35
134 | CGGCGCACGTGGCTGG | -0.19
135 | CAATGCACGTGCGGTG | 0
136 | CGGGTCACGTGAAGTC | 0.39
137 | AGGAGCACGTGTAGTC | 0.02
138 | GTAGGCACGTGGCATG | -0.17
139 | GTGTTCACGTGGGAAT | 0.17
140 | TGGTTCACGTGGCGAG | 0.15
141 | GGAGACACGTGTTGAG | 0.17
142 | GAGATCACGTGGAGAT | 0.37
143 | TTAGCCACGTGAGGTG | 0.23
144 | TGGGTCACGTGGGGCT | -0.06
145 | ACTTTCACGTGGTTTA | 0.18
146 | GATAGCACGTGAGTTA | 0.14
